# In paper PMC9911399, “Two distinct binding modes provide the RNA-binding protein RbFox with extraordinary sequence specificity”:
# Changes are numbered by the printed parent chain; changes in the protein carry UniProt numbers. The list shows a part of the results.
# T1: RBFOX1 RRM (Homo sapiens, UniProt Q9NWB1 109-208)
# T1 sequence: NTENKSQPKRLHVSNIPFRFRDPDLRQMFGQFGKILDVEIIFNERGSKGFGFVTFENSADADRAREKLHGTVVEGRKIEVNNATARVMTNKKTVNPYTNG
# B1: GCUAUAC (DNA:RNA)
# RNA: GGGAGACCGGAAUUCAGAUUGUCCGCUAUACUUAAAUCCCGUCGUAGCCACCA
# DNA 1: CAATCTGAATTCCGGTCTCCC
# DNA 2: TGGTGGCTACGACGGGATT
# B2: ACUGGGU (DNA:RNA)
# RNA: B1 RNA with G25A, A28G, U29G, A30G, C31U
# DNA 1: CAATCTGAATTCCGGTCTCCC
# DNA 2: TGGTGGCTACGACGGGATT
# B3: UUUCCUC (DNA:RNA)
# RNA: B1 RNA with G25U, C26U, A28C, U29C, A30U
# DNA 1: CAATCTGAATTCCGGTCTCCC
# DNA 2: TGGTGGCTACGACGGGATT
# B4: CGGAGUC (DNA:RNA)
# RNA: B1 RNA with G25C, C26G, U27G, U29G, A30U
# DNA 1: CAATCTGAATTCCGGTCTCCC
# DNA 2: TGGTGGCTACGACGGGATT
# B5: CCUGAAC (DNA:RNA)
# RNA: B1 RNA with G25C, A28G, U29A
# DNA 1: CAATCTGAATTCCGGTCTCCC
# DNA 2: TGGTGGCTACGACGGGATT
# B6: ACCCCAG (DNA:RNA)
# RNA: B1 RNA with G25A, U27C, A28C, U29C, C31G
# DNA 1: CAATCTGAATTCCGGTCTCCC
# DNA 2: TGGTGGCTACGACGGGATT
# B7: GUAAAAG (DNA:RNA)
# RNA: B1 RNA with C26U, U27A, U29A, C31G
# DNA 1: CAATCTGAATTCCGGTCTCCC
# DNA 2: TGGTGGCTACGACGGGATT
# B8: GCCGUAG (DNA:RNA)
# RNA: B1 RNA with U27C, A28G, C31G
# DNA 1: CAATCTGAATTCCGGTCTCCC
# DNA 2: TGGTGGCTACGACGGGATT
# B9: UGCUAUA (DNA:RNA)
# RNA: GGGAGACCGGAAUUCAGAUUGUCCUGCUAUAUUAAAUCCCGUCGUAGCCACCA
# DNA 1: CAATCTGAATTCCGGTCTCCC
# DNA 2: TGGTGGCTACGACGGGATT
# B10: AACAGUU (DNA:RNA)
# RNA: B9 RNA with U25A, G26A, U28A, A29G, A31U
# DNA 1: CAATCTGAATTCCGGTCTCCC
# DNA 2: TGGTGGCTACGACGGGATT
# B11: CGGUCGA (DNA:RNA)
# RNA: B9 RNA with U25C, C27G, A29C, U30G
# DNA 1: CAATCTGAATTCCGGTCTCCC
# DNA 2: TGGTGGCTACGACGGGATT
# B12: UUCUAUC (DNA:RNA)
# RNA: B9 RNA with G26U, A31C
# DNA 1: CAATCTGAATTCCGGTCTCCC
# DNA 2: TGGTGGCTACGACGGGATT
# B13: CUCUAGA (DNA:RNA)
# RNA: B9 RNA with U25C, G26U, U30G
# DNA 1: CAATCTGAATTCCGGTCTCCC
# DNA 2: TGGTGGCTACGACGGGATT
# B14: GUGUCAC (DNA:RNA)
# RNA: B1 RNA with C26U, U27G, A28U, U29C
# DNA 1: CAATCTGAATTCCGGTCTCCC
# DNA 2: TGGTGGCTACGACGGGATT
# B15: GUCUACC (DNA:RNA)
# RNA: B9 RNA with U25G, G26U, U30C, A31C
# DNA 1: CAATCTGAATTCCGGTCTCCC
# DNA 2: TGGTGGCTACGACGGGATT
# B16: AAAAGCC (DNA:RNA)
# RNA: B1 RNA with G25A, C26A, U27A, U29G, A30C
# DNA 1: CAATCTGAATTCCGGTCTCCC
# DNA 2: TGGTGGCTACGACGGGATT
# B17: CCAAGUU (DNA:RNA)
# RNA: B1 RNA with G25C, U27A, U29G, A30U, C31U
# DNA 1: CAATCTGAATTCCGGTCTCCC
# DNA 2: TGGTGGCTACGACGGGATT
# B18: AGGGGAU (DNA:RNA)
# RNA: B1 RNA with G25A, C26G, U27G, A28G, U29G, C31U
# DNA 1: CAATCTGAATTCCGGTCTCCC
# DNA 2: TGGTGGCTACGACGGGATT
# B19: AGCCGGU (DNA:RNA)
# RNA: B9 RNA with U25A, U28C, A29G, U30G, A31U
# DNA 1: CAATCTGAATTCCGGTCTCCC
# DNA 2: TGGTGGCTACGACGGGATT
# B20: AUGCCGG (DNA:RNA)
# RNA: GGGAGACCGGAAUUCAGAUUGUCCAUGCCGGUUAAAUCCCGUCGUAGCCACCA
# DNA 1: CAATCTGAATTCCGGTCTCCC
# DNA 2: TGGTGGCTACGACGGGATT
# B21: UUUCGAU (DNA:RNA)
# RNA: B20 RNA with A25U, G27U, C29G, G30A, G31U
# DNA 1: CAATCTGAATTCCGGTCTCCC
# DNA 2: TGGTGGCTACGACGGGATT
# B22: UGUCCAC (DNA:RNA)
# RNA: B1 RNA with G25U, C26G, A28C, U29C
# DNA 1: CAATCTGAATTCCGGTCTCCC
# DNA 2: TGGTGGCTACGACGGGATT
# B23: CUCCACA (DNA:RNA)
# RNA: B9 RNA with U25C, G26U, U28C, U30C
# DNA 1: CAATCTGAATTCCGGTCTCCC
# DNA 2: TGGTGGCTACGACGGGATT
# B24: UAUUCGA (DNA:RNA)
# RNA: B9 RNA with G26A, C27U, A29C, U30G
# DNA 1: CAATCTGAATTCCGGTCTCCC
# DNA 2: TGGTGGCTACGACGGGATT
# B25: GUGUUGC (DNA:RNA)
# RNA: B20 RNA with A25G, C28U, C29U, G31C
# DNA 1: CAATCTGAATTCCGGTCTCCC
# DNA 2: TGGTGGCTACGACGGGATT
# B26: AACUGUC (DNA:RNA)
# RNA: B9 RNA with U25A, G26A, A29G, A31C
# DNA 1: CAATCTGAATTCCGGTCTCCC
# DNA 2: TGGTGGCTACGACGGGATT
# B27: AUAAAGC (DNA:RNA)
# RNA: B20 RNA with G27A, C28A, C29A, G31C
# DNA 1: CAATCTGAATTCCGGTCTCCC
# DNA 2: TGGTGGCTACGACGGGATT
# B28: UCUUUGG (DNA:RNA)
# RNA: B1 RNA with G25U, A28U, A30G, C31G
# DNA 1: CAATCTGAATTCCGGTCTCCC
# DNA 2: TGGTGGCTACGACGGGATT
# B29: UCGCGGA (DNA:RNA)
# RNA: B20 RNA with A25U, U26C, C29G, G31A
# DNA 1: CAATCTGAATTCCGGTCTCCC
# DNA 2: TGGTGGCTACGACGGGATT
# B30: CGCGUAA (DNA:RNA)
# RNA: B9 RNA with U25C, U28G, A29U, U30A
# DNA 1: CAATCTGAATTCCGGTCTCCC
# DNA 2: TGGTGGCTACGACGGGATT
# B31: CAAACUG (DNA:RNA)
# RNA: B20 RNA with A25C, U26A, G27A, C28A, G30U
# DNA 1: CAATCTGAATTCCGGTCTCCC
# DNA 2: TGGTGGCTACGACGGGATT
# Biological target: T1, RBFOX1 RRM
# Assay: EMSA; HiTS-Eq, 1 nM pool, 10 min; buffer printed only for the single-RNA assays: 10 mM Tris pH 7.5, 150 mM NaCl, 3.4 mM EDTA, 0.001% NP-40, 30 C
# Conditions: tags: His6 N-terminal (pET28a); label: 5' 32P
# How it was run: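 Purified RbFox RRM, wild type or mutant, was incubated for 10 min in 50 µL with 1 nM of a 5′-radiolabelled RNA pool carrying 7 randomized nucleotides, whose flanks were annealed to DNA oligonucleotides, over a series of increasing protein concentrations. Unbound RNA was resolved on 8% native PAGE, cut out, reverse-transcribed, barcoded by PCR and sequenced on an Illumina HiSeq 2500. Relative association constants were derived from changes in read counts for each RNA species versus the control reaction and normalised to the cognate motif.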
row,Binder,binding signal
1,B1,0.00509 KA relative to UGCAUGU
2,B2,0.0133 KA relative to UGCAUGU
3,B3,0.0117 KA relative to UGCAUGU
4,B4,0.0303 KA relative to UGCAUGU
5,B5,0.011 KA relative to UGCAUGU
6,B6,0.00285 KA relative to UGCAUGU
7,B7,0.00513 KA relative to UGCAUGU
8,B8,0.0118 KA relative to UGCAUGU
9,B9,0.0144 KA relative to UGCAUGU
10,B10,0.0024 KA relative to UGCAUGU
11,B11,0.00831 KA relative to UGCAUGU
12,B12,0.00501 KA relative to UGCAUGU
13,B13,0.00742 KA relative to UGCAUGU
14,B14,0.0104 KA relative to UGCAUGU
15,B15,0.0113 KA relative to UGCAUGU
16,B16,0.00303 KA relative to UGCAUGU

row,Binder,binding signal
1,B17,0.00543 KA relative to UGCAUGU
2,B18,0.0169 KA relative to UGCAUGU
3,B19,0.00205 KA relative to UGCAUGU
4,B20,0.0153 KA relative to UGCAUGU
5,B21,0.0217 KA relative to UGCAUGU
6,B22,0.00727 KA relative to UGCAUGU
7,B23,0.00143 KA relative to UGCAUGU
8,B24,0.0155 KA relative to UGCAUGU
9,B25,0.0138 KA relative to UGCAUGU
10,B26,0.00948 KA relative to UGCAUGU
11,B27,0.00101 KA relative to UGCAUGU
12,B28,0.0222 KA relative to UGCAUGU
13,B29,0.00548 KA relative to UGCAUGU
14,B30,0.0027 KA relative to UGCAUGU
15,B31,0.00407 KA relative to UGCAUGU
